About 16,000 (7.3%) of roughly 220,000 compounds were called active. The inconclusive results got no clear call from the source; some entries with a clear call stand among them for comparison. Calls come from the whole dose curve; as a rule, active = well fitted inhibition curve with a large enough effect (not every such curve was filed as active); inconclusive = small, poorly fitted or top-dose-only effect, or another doubt; inactive = no such curve, though single readings can be large or run the other way. Potencies beside an inconclusive call are fits to weak or partial responses and may not hold up.
target: Aldehyde dehydrogenase 1A1 (Homo sapiens) (UniProt P00352); experiment: qHTS Assay for Inhibitors of Aldehyde Dehydrogenase 1 (ALDH1A1); conditions: Purified ALDH1A1, NADH fluorescence, propionaldehyde substrate; series mostly up to 75.3 µM
UniProt P00352, sequence (P00352 whole entry, looked up): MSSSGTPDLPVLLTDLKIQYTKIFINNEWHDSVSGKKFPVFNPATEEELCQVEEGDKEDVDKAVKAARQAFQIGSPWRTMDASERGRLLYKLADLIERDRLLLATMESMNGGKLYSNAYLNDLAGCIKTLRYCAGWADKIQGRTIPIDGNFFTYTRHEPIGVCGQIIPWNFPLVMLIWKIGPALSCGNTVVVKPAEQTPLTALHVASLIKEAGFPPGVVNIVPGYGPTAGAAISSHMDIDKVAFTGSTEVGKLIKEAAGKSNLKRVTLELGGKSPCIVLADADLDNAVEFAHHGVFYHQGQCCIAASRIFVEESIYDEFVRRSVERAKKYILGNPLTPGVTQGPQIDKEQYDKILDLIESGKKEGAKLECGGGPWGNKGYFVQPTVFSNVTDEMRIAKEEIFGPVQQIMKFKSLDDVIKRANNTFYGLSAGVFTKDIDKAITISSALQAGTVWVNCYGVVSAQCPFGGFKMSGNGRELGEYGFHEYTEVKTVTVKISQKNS
Potency is the fitted concentration of half-maximal effect; tags give direction and shape of the fitted curve.

Potency, active:
O=C(COC(=O)C1CC(=O)N(Cc2ccco2)C1)c1ccc(OC(=O)c2ccco2)cc1 (stereo unspecified) 1.58 µM
Cc1ccc(C)c(NC(=O)C(c2ccccc2)N2CCOCC2)c1 (stereo unspecified) 15.8 µM
Cc1ccc(C2C(C#N)=C(N)SC(N)=C2C#N)cc1 22.4 µM
O=C(CN1CCN(c2ccc(F)cc2)CC1)Nc1nnc(-c2ccccc2)s1 28.2 µM
CCCCNC(=O)c1ccccc1NC(=O)c1ccccc1N(C)S(C)(=O)=O 22.4 µM
O=C(Cc1n[nH]c(=O)c2ccccc12)Nc1ccc(-c2nnc3n2CCCCC3)cc1 15.8 µM
CC(=O)Nc1ccc(NC(=O)COC(=O)c2c3c(nc4ccccc24)CCN(Cc2ccccc2)C3)cc1 7.08 µM
Cc1ccccc1OCC(=O)N(Cc1ccc(N(C)C)cc1)C1CCS(=O)(=O)C1 (stereo unspecified) 11.2 µM

Potency, inactive:
CCOC(=O)c1c(NC(=O)c2cccs2)sc(C)c1CC
CC(C)C[C@@H](CC(=O)N[C@@H](CCCN)CC(=O)N[C@@H]1CCNC[C@H]1C(=O)N[C@H](CC(=O)N[C@@H](CCC(=O)O)CC(=O)O)Cc1ccccc1)NC(=O)[C@@H]1CCCC[C@H]1N
Cc1ccc(-c2cc(N)n[nH]2)cc1
O=C(NCCN1CCCCC1)c1ccc2c(c1)OCCO2
CCC(=O)NC(c1ccc(C)cc1)c1cc([N+](=O)[O-])c2cccnc2c1O (stereo unspecified)
Cc1ccc(C)c(NC(=S)NC2CC3CCCC(C2)N3CC(C)C)c1 (stereo unspecified)
CCC(C)[C@H](NC(=O)Nc1ccc(C(C)=O)cc1)C(=O)OC (stereo partly specified)
CSC1=NC(C)(C)C=C(/C=C/c2ccc(Cl)cc2Cl)N1
CC(C)NC(=O)N1CC2(CCN(S(=O)(=O)c3ccccc3)CC2)C1
COC(=O)c1ccc(/C=N/OCC(=O)NCc2ccc(F)cc2)cc1
O=[N+]([O-])c1ccc(/C=C/c2ccc3ccccc3n2)cc1
Cc1ccc2cc(N)ccc2n1
COC(=O)C1(C(=O)OC)C/C=C\C/C=C\c2ccccc2C1C[N+](=O)[O-] (stereo unspecified)
O=C1NC(=S)N(c2cccc(Cl)c2)C12CCCCC2
Cc1ccc(CCN2CC(C(=O)NCCN3CCCCCC3)CC2=O)cc1 (stereo unspecified)
Cn1c(SCc2ccc([N+](=O)[O-])cc2)nnc1-c1cccnc1
O=c1[nH][nH]c(-c2ccccc2)c1C=Nc1cccc(Cl)c1
CC(=O)NCCC(=O)Nc1ccc(F)cc1C
Oc1ccc(Br)cc1-c1cc(-c2ccco2)[nH]n1
CSc1ncccc1C(=O)NCCc1ccc(Cl)cc1

Potency, inconclusive:
CCCS(=O)(=O)c1c(S(=O)(=O)CCC)c2c3ccccc3ccn2c1C(=O)OC 39.8 µM [inhibitor, single point]
CCOC(=O)c1cnc2ccc(C(=O)OC)cc2c1Nc1cccc(C(=O)O)c1 39.8 µM [inhibitor, single point]
O=C(C1=NN[C@@H]2C(=O)N(c3cccc(C(F)(F)F)c3)C(=O)[C@H]12)C(c1ccccc1)c1ccccc1 39.8 µM [inhibitor, single point]
Cc1cc2oc(C(=O)Nc3c(C)n(C)n(-c4ccccc4)c3=O)c(C)c2cc1C 37.7 µM [inhibitor, single point]
Cc1ccccc1N=C1NN=C(c2ccccc2F)CS1 44.7 µM [inhibitor, single point]
Cc1cc(C)c2[nH]c(=O)c(CN(CC3CCCO3)C(=S)NCc3ccco3)cc2c1 (stereo unspecified) 17.8 µM [inhibitor, partial curve]
COCCOC(=O)C1=C(C)N=C2SCCC(=O)N2C1c1cccc(Br)c1 (stereo unspecified) 44.7 µM [inhibitor, single point]
Cc1ccc(C2OC3=C(C(=O)CC(C)(C)C3)C(N)=C2C#N)o1 (stereo unspecified) 39.8 µM [inhibitor, single point]
CCOc1cc(N2CCOCC2)c(OCC)cc1NC(=O)c1ccc(OCc2c(C)noc2C)c(OC)c1 39.8 µM [inhibitor, single point]
CCCOc1ccc(-c2nc(=S)[nH][nH]2)cc1 8.91 µM [inhibitor, partial curve]
CCCOc1ccc(N2C(=O)CC(N(O)c3ccccc3)C2=O)cc1 (stereo unspecified) 35.5 µM [inhibitor, single point]
CC(C)Sc1ncnc2c1oc1ccccc12 39.8 µM [inhibitor, single point]
CC(=O)Nc1cccc(/C(C)=N/NS(=O)(=O)c2ccc(C)cc2)c1 25.1 µM [inhibitor, single point]
CCC(CC)c1nnc(NC(=O)CCNC(=O)c2ccccc2Cl)s1 39.8 µM [inhibitor, single point]
COc1ccc(C(=O)Nc2ccc3c(c2)nc(CN2CCCC2)n3C)cc1 20 µM [inhibitor, partial curve]
CCc1cccc2nc3c(c([Si](C)(C)C)c12)Cn1c-3cccc1=O 28.2 µM [inhibitor, partial curve]
COc1ccccc1/C=C(/C(=O)OCC(=O)Nc1ccccc1C)c1ccccc1 10 µM [inhibitor, partial curve, poor fit]
COCCCn1c(-c2ccsc2)nc2c1c(=O)[nH]c(=O)n2Cc1ccccc1 39.8 µM [inhibitor, single point]
CCc1ccc(C(=O)Nc2ccc(OC)c(S(=O)(=O)N3CCOCC3)c2)cc1 25.1 µM [inhibitor, partial curve]
COc1ccc(C(=O)/C=C2/c3ccccc3CC(C)(C)N2C)cc1 39.8 µM [inhibitor, single point]
O=C1Nc2ccccc2S/C1=C\C(=O)N1CCCC1 37.7 µM [inhibitor, single point]
NC(=O)c1c(NC(=O)Cn2nc(C(=O)O)c3ccccc3c2=O)sc2c1CCC2 39.8 µM [inhibitor, single point]
Cc1cccc(NC(=O)CSc2nc3[nH]ncc3c(=O)[nH]2)c1C 35.5 µM [inhibitor, single point]
COCCNC(=O)CSc1ncnc2sc(-c3ccccc3)cc12 25.1 µM [inhibitor, single point]
COc1ccc2[nH]c(=O)c(-c3nnn(-c4ccccc4)n3)cc2c1 28.2 µM [inhibitor, partial curve]
CCC(=O)NC(=S)Nc1ccc(NC(=O)COc2ccc(Cl)c(C)c2)cc1 31.6 µM [inhibitor, single point]
c1ccc(-c2cccc(N3CC[C@@]4(CCCNC4)C3)c2)cc1 25.1 µM [inhibitor, partial curve]
Cc1ccccc1CNC(=O)c1ccccc1 20 µM [inhibitor, single point]
Cc1ccc(-n2nc(C)c3c2OC(N)=C(C#N)C3c2ccncc2)cc1 (stereo unspecified) 15.8 µM [inhibitor, partial curve]
CCN(CC)C(=O)CSc1ncnc2c1nnn2-c1ccc(F)cc1 39.8 µM [inhibitor, single point]
O=C(O)CCN1C(=O)C2C3CC(C2C1=O)C1C(c2ccccc2)c2sc(=O)n(-c4ccccc4)c2SC31 (stereo unspecified) 28.2 µM [inhibitor, single point]
COc1cc(-c2nnc(SCC3(c4ccc(Br)cc4)OCCO3)o2)cc(OC)c1OC 31.6 µM [inhibitor, single point]
Cn1c(=O)c2[nH]c(-c3ccccc3O)nc2n(C)c1=O 31.6 µM [inhibitor, single point]
O=C(C[n+]1ccc2ccccc2c1)c1cccc2ccccc12 35.5 µM [inhibitor, single point]
Cc1ccc(C)c2[nH]c(=O)c(C(c3nnnn3CCc3ccccc3)N3CCOCC3)cc12 (stereo unspecified) 39.8 µM [inhibitor, single point]
COc1ccc(-c2cc(C(F)F)n3ncc(C(=O)N4CCSCC4)c3n2)cc1 39.8 µM [inhibitor, single point]
O=C(COc1cccc2cccnc12)N/N=C/c1ccc(O)cc1 39.8 µM [inhibitor, single point]
O=C(COC(=O)c1c2ccccc2cc2ccccc12)NCC(F)(F)F 39.8 µM [inhibitor, single point]
COc1ccc(Cl)cc1NC(=S)NNC(=O)CC(C)C 39.8 µM [inhibitor, single point]
COc1cc(OC)c2c(O)c3c(c(-c4c5c(c(O)c6c(OC)cc(OC)cc46)CO[C@@H](C)[C@H]5O)c2c1)[C@H](O)[C@H](C)OC3 44.7 µM [inhibitor, single point]
Cc1ccc(C)c(N2C(=O)CC(N3CCN(Cc4ccc5c(c4)OCO5)CC3)C2=O)c1 (stereo unspecified) 39.8 µM [inhibitor, single point]
Cc1cccc(Nc2ncc3c(n2)CC(C)CC3=O)c1 (stereo unspecified) 25.1 µM [inhibitor, single point]
Cc1c(C(=O)NC(C)C)oc2c1-c1[nH]ncc1CC2 39.8 µM [inhibitor, single point]

From PubChem BioAssay AID1030 (National Center for Advancing Translational Sciences (NCATS), 2008)
